Measurements taken from PubChem BioAssay AID624417 (National Center for Advancing Translational Sciences (NCATS), 2012).
Several values for one entry are separate records, joined by “and”; a condition that tells them apart may be missing. Equal values may be shown once. The campaign covered roughly 410,000 compounds. About 6,400 (1.6%) were called active. This list was built around the results that the source calls inconclusive (neither active nor inactive); the mix of calls is not that of the screen. Calls come from the whole dose curve; as a rule, active = well fitted inhibition curve with a large enough effect; inconclusive = small, poorly fitted or top-dose-only effect; inactive = no such curve, though single readings can be large or run the other way. Potencies of inconclusive entries are doubtful fits and often do not repeat.

Biological target: Glucagon-like peptide 1 receptor (Homo sapiens) (UniProt P43220)
Test: qHTS of GLP-1 Receptor Inverse Agonists (Inhibition Mode); note: nearly all actives have a fitted effect of over 55% in size
Settings: HEK293 GLP-1R CRE-luciferase, luminescence, 24 h, GLP-1R form is constitutively active; activity change, negative = inhibition: at 38.3 µM (top of the series) unless noted
Summary of the method: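 Assay principle: reduced luminescence from a cAMP-responsive reporter in HEK293 cells co-expressing a constitutively active GLP-1R. Conditions: 24 hr compound incubation, 37 deg C, 5% CO2.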
% is set by controls: 0 for no effect and ±100 for the full control effect; potency is the fitted concentration of half-maximal effect; tags give direction and shape of the fitted curve.

Chain of UniProt P43220 (P43220 whole entry, looked up): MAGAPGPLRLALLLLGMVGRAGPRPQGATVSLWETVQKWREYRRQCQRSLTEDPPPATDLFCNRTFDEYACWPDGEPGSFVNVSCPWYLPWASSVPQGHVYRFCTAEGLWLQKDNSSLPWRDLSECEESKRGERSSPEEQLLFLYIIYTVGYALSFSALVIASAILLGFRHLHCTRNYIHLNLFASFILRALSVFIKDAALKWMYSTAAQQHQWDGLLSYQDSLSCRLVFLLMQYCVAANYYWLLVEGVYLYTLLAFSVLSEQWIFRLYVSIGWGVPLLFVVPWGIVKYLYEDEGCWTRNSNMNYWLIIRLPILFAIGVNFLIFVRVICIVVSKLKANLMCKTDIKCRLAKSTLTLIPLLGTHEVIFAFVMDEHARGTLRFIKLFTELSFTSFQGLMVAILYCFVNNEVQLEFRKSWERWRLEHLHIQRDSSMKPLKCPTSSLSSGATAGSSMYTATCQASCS

SMILES | Potency | activity change, negative = inhibition
Oc1ccc(CN2CCCCC2)c2cccnc12 | inactive | 
COc1ccc(C(C(=O)NCC2CCCO2)N(Cc2cccs2)C(=O)c2snc(C(N)=O)c2N)cc1 (centres undefined) | inconclusive: 22.4 µM [inhibitor, single point] | 
Cc1ccc(OS(=O)(=O)c2ccccc2)c(/C=N/N=C2\NC(=O)C(C)S2)c1 (centres undefined) | inconclusive: 31.6 µM [inhibitor, single point] | 
CCOc1ccc(OCc2ccc(C(=O)OCc3ccccn3)o2)cc1 | inconclusive: 8.91 µM [inhibitor, single point] | 
O=C(Cn1sc2ccccc2c1=O)Nc1ccccc1 | inconclusive: 10 µM [inhibitor, partial curve] | 
Cc1ccc2nc(Cl)c3cc(C(=O)NC4CCC(C)CC4)sc3c2c1 (centres undefined) | inactive | 
CCOC1=C2[C@@H](CN(S(=O)(=O)c3ccc(C)cc3)[C@H]2c2ccccc2F)[C@H]2C(=O)N(CC)C(=O)[C@H]2C1 | inactive | 
O=C(NCc1ccc2c(c1)OCO2)C1CCCN1S(=O)(=O)c1ccc(F)cc1 (centres undefined) | inconclusive: 3.55 µM [inhibitor, single point] | 
COc1ccc(OC)c(S(=O)(=O)N(C)CC(=O)N2CCN(c3cccc(Cl)c3)CC2)c1 | inconclusive: 22.4 µM [inhibitor, single point] | 
COc1ccc(CCNC(=O)c2ccccc2NC(=O)CN2CCN(c3ccccc3O)CC2)cc1 | inconclusive: 28.2 µM [inhibitor, single point] | 
Cc1ccc2nc(-c3ccc(N)cc3)sc2c1 | active: 4.47 µM | 
COc1ccc(Cc2nnc(N/N=C(\C)c3ccccc3)[nH]c2=O)cc1OC | inconclusive: 10 µM [inhibitor, single point] | 
COc1cccc(-c2ccc(SCC(=O)NC3CCCCC3)nn2)c1 | inconclusive: 10 µM [inhibitor, partial curve, poor fit] | 
O=C(CC1N=C2c3ccccc3N=C(SCc3cccc(F)c3)N2C1=O)NCc1ccc2c(c1)OCO2 (centres undefined) | inconclusive: 28.2 µM [inhibitor, single point] | 
CCOC(=O)C1=C(C)N(CC(C)C)C(=O)/C1=C\c1ccc(OCC(=O)Nc2ccccc2)cc1 | inconclusive: 10 µM [inhibitor, partial curve, poor fit] | 
O=C(O)c1ccc(NC(=O)c2cn(-c3ccccc3)nc2-c2ccc(Br)cc2)cc1 | inconclusive: 28.2 µM [inhibitor, single point] and inconclusive: 8.91 µM [inhibitor, partial curve, poor fit] | 
O=C(CN1CCC(n2nnc3cc(F)ccc32)CC1)N1CCCc2ccccc21 | inactive | 
CCN(Cc1ccccc1)C(c1cccs1)c1nnnn1C1CCCCC1 (centres undefined) | inconclusive: 28.2 µM [inhibitor, single point] | 
C[C@]12CCC(=O)C[C@@H]1CC[C@@H]1[C@@H]2CC[C@]2(C)C=CC[C@@H]12 | inactive | 
Cc1nc(Nc2ccc(S(=O)(=O)N3CCCCC3C)cc2)c2nnn(Cc3ccccc3)c2n1 (centres undefined) | inactive | 
Cc1ccc2c(c1C)NC(=O)CC2c1ccc(Cl)cc1Cl (centres undefined) | inactive | 
CC(=O)c1ccc(C(=O)N2CCc3c([nH]c4ccccc34)C2c2cccc(C)n2)s1 (centres undefined) | inconclusive: 14.1 µM [inhibitor, partial curve, poor fit] | 

SMILES | Potency | activity change, negative = inhibition
N/C(=N\OC(=O)COc1ccccc1Cl)c1ccccn1 | inconclusive: 28.2 µM [inhibitor, single point] | 
Cc1ccc(CS(=O)(=O)c2ncc(Cl)c(C(=O)Nc3nnc(C)s3)n2)cc1 | inconclusive: 28.2 µM [inhibitor, single point] | 
C=CCNC(=S)Nc1ccc(Cl)cc1 | inactive | 
COc1cc(Br)c(C(C)NC(=O)c2cccc(Br)c2)cc1OC (centres undefined) | inconclusive: 11.2 µM [inhibitor, partial curve, poor fit] | 
CCNC(=O)NC(=O)COC(=O)c1ccccc1SCC(=O)NC(=O)NCC | inconclusive: 28.2 µM [inhibitor, single point] | 
CC(C)CCC(CCNCc1ccccn1)c1ccc2c(c1)OCO2 (centres undefined) | inconclusive: 28.2 µM [inhibitor, single point] | 
COc1ccc(OC)c(NC2=C(Cl)C(=O)N(Cc3ccccc3)C2=O)c1 | inconclusive: 14.1 µM [inhibitor, partial curve, poor fit] | 
CCNC(=O)C1CCCN(C(=O)c2ccc(C(=O)OC)cc2)CC1 (centres undefined) | inactive | 
COc1ccc(-c2noc(COc3ccc(Br)cc3C)n2)cc1OC | inconclusive: 28.2 µM [inhibitor, single point] | 
COc1ccc(-c2noc(=O)n2Cc2ccccc2Cl)cc1 |  | inconclusive: -36% [inhibitor]
Cn1c(Oc2ccccc2NCc2cc(Br)ccc2O)cc(=O)n(C)c1=O | inconclusive: 12.6 µM [inhibitor, partial curve, poor fit] | 
COc1cc(C(=O)NNC(=O)/C=C/c2ccccc2)cc(OC)c1OC | inactive | 
O=C(Oc1ccc[nH]c1=O)c1cccc(Cl)c1 | inconclusive: 7.94 µM [inhibitor, partial curve] | 
CC1(C)CC2CC(C)(CN2S(=O)(=O)c2ccc(C(=O)Nc3cccc(S(=O)(=O)N4CCOCC4)c3)cc2)C1 (centres undefined) | inconclusive: 3.16 µM [inhibitor, full curve] | 
O=C(Nc1ccncc1)c1cc(S(=O)(=O)N2CCCC2)ccc1Cl | inconclusive: 15.8 µM [inhibitor, partial curve, poor fit] | 
O=C(CCNS(=O)(=O)c1ccc(OC(F)(F)F)cc1)N1CCN(S(=O)(=O)c2cccc(F)c2)CC1 | inconclusive: 31.6 µM [inhibitor, single point] | 
Cc1onc(-c2ccccc2)c1C(=O)OCC(=O)Nc1ccc(C#N)cc1 | inconclusive: 11.2 µM [inhibitor, single point] | 
Cc1ccc(-c2[nH]c(-c3ccccc3)nc2SCC(=O)NCC2CCCO2)cc1 (centres undefined) | inconclusive: 28.2 µM [inhibitor, single point] | 
O=C(CN1C(=O)NC2(CCCc3ccccc32)C1=O)Nc1cccc(S(=O)(=O)N2CCCCC2)c1 (centres undefined) | inconclusive: 3.16 µM [inhibitor, partial curve, poor fit] | 
CCOC(=O)c1cc2sc(C)cc2n1CC(=O)N(CC)CC | inconclusive: 10 µM [inhibitor, single point] | 
CCc1ccc(-c2nc(CS(=O)CC(=O)NCc3ccccc3)c(C)o2)cc1 (centres undefined) | inconclusive: 8.91 µM [inhibitor, partial curve, poor fit] | 
CCN1C(=NCCc2cccs2)N[C@@H](c2cccs2)C(C(=O)OC)=C1C | inconclusive: 28.2 µM [inhibitor, single point] | 

SMILES | Potency | activity change, negative = inhibition
CCOc1ccc(C(=O)Nc2ccc3c(c2)OCCO3)cc1OC | inactive | 
Cc1cccc(Nc2nc(-c3ccc(F)cc3)cs2)n1 | inconclusive: 20 µM [inhibitor, single point] | 
CCOC(=O)c1c(CN2CCCCC2)oc2ccc(O)cc12 | inconclusive: 12.6 µM [inhibitor, single point] | 
COc1ccc(OC)c(-c2nc(C(=O)NC3CCN(Cc4ccccc4)CC3)cc3c2[nH]c2ccccc23)c1 | active: 10 µM | 
CC(C)Cn1c(C23CC4CC(CC(C4)C2)C3)n[nH]c1=S | inconclusive: 2.51 µM [inhibitor, full curve] | 
COc1ccc(CNc2nc3ccccc3n2CCN2CCCCC2)cc1 | active: 10 µM | 
CCN1CCN(c2ccc(S(=O)(=O)N3CCCCC3)cc2NC(=O)COc2ccc(Cl)c(C)c2)CC1 | inconclusive: 28.2 µM [inhibitor, single point] | 
C(=N\N(Cc1ccccc1)c1ccccc1)/c1cccnc1 | inconclusive: 8.91 µM [inhibitor, partial curve, poor fit] | 
CCn1c(C(=O)N2CCC(C(=O)NCCCSC3CCCCC3)CC2)cc2sccc21 | inconclusive: 12.6 µM [inhibitor, single point] | 
O=c1oc2cc(O)ccc2cc1-c1nnc(Nc2ccccc2F)s1 | inactive | 
Cc1c(-c2nc(-c3ccccc3F)no2)nnn1-c1cc(F)ccc1F | inconclusive: 1.12 µM [inhibitor, partial curve, poor fit] | 
C[C@H](NC(=O)c1ccccc1Cl)C(=O)OC(C(=O)Nc1cc(C(F)(F)F)ccc1Cl)c1ccccc1 (some centres undefined) | inconclusive: 12.6 µM [inhibitor, single point] | 
CC(=O)ON=C1C=CC(=C(C#N)c2ccccc2)C=C1 | inconclusive: 7.08 µM [inhibitor, partial curve, poor fit] | 
Cc1ccc(CNC(=O)CSc2nc3c(sc4ccccc43)c(=O)n2CCCN2CCCC2)cc1 | inconclusive: 10 µM [inhibitor, partial curve, poor fit] | 
CN(C)c1ccc(-c2ccnc3c2CC(C)(C(=O)Nc2ccc(F)c(Cl)c2)O3)cc1 (centres undefined) | inactive | 
CCCCC1(CC)COC(c2ccccc2)OC1 (centres undefined) | inconclusive: 20 µM [inhibitor, single point] | 
Cc1ccc(NC(=O)CCNS(=O)(=O)c2cccc3nonc23)cc1Cl | inconclusive: 25.1 µM [inhibitor, single point] and inconclusive: 12.6 µM [inhibitor, single point] | 
CC1=C(/C=C/C(C)=N\NC(=O)c2ccncc2)C(C)(C)CCC1 | inactive | 
Cc1nc(C)c(-c2ccc(SCc3ccc([N+](=O)[O-])cc3)nn2)s1 | inconclusive: 28.2 µM [inhibitor, single point] | 
COc1ccc(-n2c(-c3ccc(C)cc3)cc3c2CC(C)(C)CC3=O)c(OC)c1 | inconclusive: 10 µM [inhibitor, partial curve, poor fit] | 
